Structures can show the parent of a compound that is named as a salt. ± gives the standard error. Out of some 1,300 compounds screened, about 130 (10%) showed an effect of 50% or more. Only a part is listed here, and it is no random draw.
Tested on: Trichoderma virens ATCC 9645
Experiment: growth yield (OD600) with compound + IPBC relative to untreated control; higher = less growth inhibition
Settings: compound concentration: 100 uM, IPBC concentration: 200 ng/ml
In short: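 For each 96-well plate, 100 μl aliquots were prepared with Trichoderma virens ATCC 9645 spores suspended at 15,000 spores ml^−1 in potato dextrose broth. The spores had been harvested from potato dextrose agar plates after 7 days. Library compounds were present at 100 μM final, some wells also receiving a biocide at 200 ng ml^−1, and plates were grown at 30 °C with OD600 read on a BioTek EL800 at 40 h and 72 h. Reported growth, relative to the control lacking both agents, is the mean of duplicate screens.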

| SMILES | growth yield (40 h) [%] | growth yield (72 h) [%] |
| --- | --- | --- |
| CC(=O)OCC(=O)NCCCOc1cccc(CN2CCCCC2)c1 [Roxatidine Acetate hydrochloride] + CCCCNC(=O)OCC#CI [3-iodo-2-propynyl butylcarbamate (IPBC)] | 82.9 ± 2.2 | 92 ± 2 |
| NS(=O)(=O)c1cc(C2(O)NC(=O)c3ccccc32)ccc1Cl (stereo not drawn) [Chlorthalidone] + CCCCNC(=O)OCC#CI [3-iodo-2-propynyl butylcarbamate (IPBC)] | 96.3 ± 5.4 | 100 ± 2.2 |
| C=CC(N)CCC(=O)O (stereo not drawn) [Vigabatrin hydrochloride] + CCCCNC(=O)OCC#CI [3-iodo-2-propynyl butylcarbamate (IPBC)] | 94.7 ± 11 | 96 ± 6 |
| CC(=O)OCC(=O)[C@@]1(O)CC[C@H]2[C@@H]3CCC4=CC(=O)CC[C@]4(C)[C@H]3[C@@H](O)C[C@@]21C [Cortisol acetate] + CCCCNC(=O)OCC#CI [3-iodo-2-propynyl butylcarbamate (IPBC)] | 92.6 ± 2.7 | 95.9 ± 1.7 |
| Cc1ncc(C[n+]2csc(CCO)c2C)c(N)n1 [Thiamine hydrochloride] + CCCCNC(=O)OCC#CI [3-iodo-2-propynyl butylcarbamate (IPBC)] | 90.1 ± 2.4 | 89.7 ± 2.4 |
| CCN[C@H]1CN(CCCOC)S(=O)(=O)c2sc(S(N)(=O)=O)cc21 [Brinzolamide] + CCCCNC(=O)OCC#CI [3-iodo-2-propynyl butylcarbamate (IPBC)] | 76.1 ± 0.79 | 86.31 ± 0.32 |
| Cc1ccc(C(=O)c2ccc(CC(=O)O)n2C)cc1 [Tolmetin sodium salt dihydrate] + CCCCNC(=O)OCC#CI [3-iodo-2-propynyl butylcarbamate (IPBC)] | 77.8 ± 4.8 | 83.9 ± 2.3 |
| CC[N+](C)(CC)CCOC(=O)C1c2ccccc2Oc2ccccc21 [Methantheline bromide] + CCCCNC(=O)OCC#CI [3-iodo-2-propynyl butylcarbamate (IPBC)] | 82 ± 1.9 | 88.5 ± 2.1 |
| CC(=O)OCC(=O)[C@@]1(O)CC[C@H]2[C@@H]3CCC4=CC(=O)CC[C@]4(C)[C@@]3(F)[C@@H](O)C[C@@]21C [Fludrocortisone acetate] + CCCCNC(=O)OCC#CI [3-iodo-2-propynyl butylcarbamate (IPBC)] | 93.4 ± 5.1 | 98.5 ± 4.7 |
| NC(=O)CN1CCCC1=O [Piracetam] + CCCCNC(=O)OCC#CI [3-iodo-2-propynyl butylcarbamate (IPBC)] | 85.5 ± 4.8 | 90.2 ± 3.4 |
| Cc1cn[nH]c1 [Fomepizole] + CCCCNC(=O)OCC#CI [3-iodo-2-propynyl butylcarbamate (IPBC)] | 82.92 ± 0.32 | 87.57 ± 0.52 |
| NCCc1c[nH]cn1 [Histamine dihydrochloride] + CCCCNC(=O)OCC#CI [3-iodo-2-propynyl butylcarbamate (IPBC)] | 83.71 ± 0.48 | 87.4 ± 0.94 |
| OC(Cn1cncn1)(Cn1cncn1)c1ccc(F)cc1F [Fluconazole] + CCCCNC(=O)OCC#CI [3-iodo-2-propynyl butylcarbamate (IPBC)] | 57.7 ± 5.9 | 75.2 ± 8.5 |
| CC[N+](C)(C)c1cccc(O)c1 [Edrophonium chloride] + CCCCNC(=O)OCC#CI [3-iodo-2-propynyl butylcarbamate (IPBC)] | 101.2 ± 0.79 | 108 ± 2.2 |
| CN1CCC(=C2c3ccccc3C=Cc3ccccc32)CC1 [Cyproheptadine hydrochloride] + CCCCNC(=O)OCC#CI [3-iodo-2-propynyl butylcarbamate (IPBC)] | 75.4 ± 1.4 | 93.9 ± 2.6 |
| CO[C@H]1/C=C/O[C@@]2(C)Oc3c(C)c(O)c4c(O)c(c(/C=N/N5CCN(C6CCCC6)CC5)c(O)c4c3C2=O)NC(=O)/C(C)=C\C=C\[C@H](C)[C@H](O)[C@@H](C)[C@@H](O)[C@@H](C)[C@H](OC(C)=O)[C@@H]1C [Rifapentine] + CCCCNC(=O)OCC#CI [3-iodo-2-propynyl butylcarbamate (IPBC)] | 90.2 ± 0.95 | 94.5 ± 2.6 |
| CC(C)(C)NC[C@@H](O)COc1cccc2c1CCCC2=O [(+) -Levobunolol hydrochloride] + CCCCNC(=O)OCC#CI [3-iodo-2-propynyl butylcarbamate (IPBC)] | 97.8 ± 16 | 99.1 ± 12 |
| C[C@H]1O[C@H](O[C@H]2[C@H](O)[C@@H](O)[C@@H](O[C@H]3[C@H](O)[C@@H](O)C(O)O[C@@H]3CO)O[C@@H]2CO)[C@H](O)[C@@H](O)[C@@H]1N[C@H]1C=C(CO)[C@@H](O)[C@H](O)[C@H]1O (stereo partly drawn) [Acarbose] + CCCCNC(=O)OCC#CI [3-iodo-2-propynyl butylcarbamate (IPBC)] | 93.7 ± 0.95 | 104.5 ± 0.84 |
| NNCCc1ccccc1 [Phenelzine sulfate] + CCCCNC(=O)OCC#CI [3-iodo-2-propynyl butylcarbamate (IPBC)] | 112 ± 2.9 | 110 ± 4.3 |
| CC(C)c1c(CN(C)C(C)Cc2ccccc2)n(C)n(-c2ccccc2)c1=O (stereo not drawn) [Famprofazone] + CCCCNC(=O)OCC#CI [3-iodo-2-propynyl butylcarbamate (IPBC)] | 93.2 ± 12 | 96.7 ± 8.2 |

| SMILES | growth yield (40 h) [%] | growth yield (72 h) [%] |
| --- | --- | --- |
| CCCc1cc(C(N)=S)ccn1 [Prothionamide] + CCCCNC(=O)OCC#CI [3-iodo-2-propynyl butylcarbamate (IPBC)] | 93.7 ± 2.2 | 98.79 ± 0.84 |
| N=C(NCCCCCCNC(=N)NC(=N)Nc1ccc(Cl)cc1)NC(=N)Nc1ccc(Cl)cc1 [Chlorhexidine] + CCCCNC(=O)OCC#CI [3-iodo-2-propynyl butylcarbamate (IPBC)] | 4.61 ± 0.16 | 3.67 ± 0.32 |
| Clc1ccc(CCC(Cn2ccnc2)Sc2c(Cl)cccc2Cl)cc1 (stereo not drawn) [Butoconazole nitrate] + CCCCNC(=O)OCC#CI [3-iodo-2-propynyl butylcarbamate (IPBC)] | 3.18 | 2.62 ± 0.1 |
| N#Cc1ccc(C(c2ccc(C#N)cc2)n2cncn2)cc1 [Letrozole] + CCCCNC(=O)OCC#CI [3-iodo-2-propynyl butylcarbamate (IPBC)] | 98.6 ± 8.1 | 98.5 ± 1.6 |
| C[C@@H]1C[C@H]2[C@@H]3C[C@H](F)C4=CC(=O)C=C[C@]4(C)[C@@]3(F)[C@@H](O)C[C@]2(C)[C@@]1(O)C(=O)CO [Flumethasone] + CCCCNC(=O)OCC#CI [3-iodo-2-propynyl butylcarbamate (IPBC)] | 95.6 ± 4.5 | 97.8 ± 4.5 |
| O=C(O)c1cn(-c2ccc(F)cc2)c2cc(N3CCNCC3)c(F)cc2c1=O [Sarafloxacin] + CCCCNC(=O)OCC#CI [3-iodo-2-propynyl butylcarbamate (IPBC)] | 81.2 ± 6.8 | 98.2 ± 5.5 |
| O=C1c2c(O)cccc2Cc2cccc(O)c21 [Anthralin] + CCCCNC(=O)OCC#CI [3-iodo-2-propynyl butylcarbamate (IPBC)] | 71.8 ± 3.8 | 82.4 ± 1.3 |
| COc1cc(C(=O)OCCCN2CCCN(CCCOC(=O)c3cc(OC)c(OC)c(OC)c3)CC2)cc(OC)c1OC [Dilazep dihydrochloride] + CCCCNC(=O)OCC#CI [3-iodo-2-propynyl butylcarbamate (IPBC)] | 117 ± 7.9 | 125 ± 2.4 |
| CN(C)CCCN1c2ccccc2Sc2ccc(C(F)(F)F)cc21 [Triflupromazine hydrochloride] + CCCCNC(=O)OCC#CI [3-iodo-2-propynyl butylcarbamate (IPBC)] | 46.4 ± 2.9 | 81.3 ± 4.3 |
| CC(=O)Oc1ccccc1C(=O)Nc1ncc([N+](=O)[O-])s1 [Nitazoxanide] + CCCCNC(=O)OCC#CI [3-iodo-2-propynyl butylcarbamate (IPBC)] | 62.1 ± 1.1 | 88.7 ± 1.5 |
| CCN(CC)CCOC(=O)C1(C2CCCCC2)CCCCC1 [Dicyclomine hydrochloride] + CCCCNC(=O)OCC#CI [3-iodo-2-propynyl butylcarbamate (IPBC)] | 82.6 ± 0.64 | 93.7 ± 1.1 |
| CCCCC(O)c1ccccc1 (stereo not drawn) [Fenipentol] + CCCCNC(=O)OCC#CI [3-iodo-2-propynyl butylcarbamate (IPBC)] | 75.3 ± 1.9 | 87 ± 3.1 |
| C[N+]12CCC(CC1)C(OC(=O)C(O)(c1ccccc1)c1ccccc1)C2 (stereo not drawn) [Clidinium bromide] + CCCCNC(=O)OCC#CI [3-iodo-2-propynyl butylcarbamate (IPBC)] | 95.8 ± 11 | 95.8 ± 6.6 |
| CC(=O)Oc1cc(C(C)C)c(OCCN(C)C)cc1C [Moxisylyte hydrochoride] + CCCCNC(=O)OCC#CI [3-iodo-2-propynyl butylcarbamate (IPBC)] | 83.87 ± 0.32 | 89.56 ± 0.84 |
| CC(c1cc2ccccc2s1)N(O)C(N)=O (stereo not drawn) [Zileuton] + CCCCNC(=O)OCC#CI [3-iodo-2-propynyl butylcarbamate (IPBC)] | 89.1 ± 3.3 | 90.8 ± 2.1 |
| COc1cc(C)c(/C=C/C(C)=C/C=C/C(C)=C/C(=O)O)c(C)c1C [Acitretin] + CCCCNC(=O)OCC#CI [3-iodo-2-propynyl butylcarbamate (IPBC)] | 94.7 ± 5.4 | 96.4 ± 4.7 |
| CC(C)OC(=O)CCC/C=C\C[C@@H]1[C@@H](CC[C@@H](O)CCc2ccccc2)[C@H](O)C[C@@H]1O [Latanoprost] + CCCCNC(=O)OCC#CI [3-iodo-2-propynyl butylcarbamate (IPBC)] | 90.5 ± 1.9 | 93 ± 3.9 |
| C[N+]1(C)CCC(=C(c2ccccc2)c2ccccc2)CC1 [Diphemanil methylsulfate] + CCCCNC(=O)OCC#CI [3-iodo-2-propynyl butylcarbamate (IPBC)] | 84.5 ± 1.6 | 91.87 ± 0.42 |
| NS(=O)(=O)c1cc2c(cc1Cl)NCNS2(=O)=O [Hydrochlorothiazide] + CCCCNC(=O)OCC#CI [3-iodo-2-propynyl butylcarbamate (IPBC)] | 89.11 ± 0.48 | 89.9 ± 2.2 |

— the supplement of paper PMC8007513
